“And” between values parts separate entries of the source, which are not always exact repeats. Equal values may be shown once.

As a reminder, the inhibition is the change of the read-out against control, counted positive when it falls.

Assay [1] has as its target T1, Serine/threonine-protein kinase TBK1 (Homo sapiens) (UniProt Q9UHD2).
T1 sequence (whole entry): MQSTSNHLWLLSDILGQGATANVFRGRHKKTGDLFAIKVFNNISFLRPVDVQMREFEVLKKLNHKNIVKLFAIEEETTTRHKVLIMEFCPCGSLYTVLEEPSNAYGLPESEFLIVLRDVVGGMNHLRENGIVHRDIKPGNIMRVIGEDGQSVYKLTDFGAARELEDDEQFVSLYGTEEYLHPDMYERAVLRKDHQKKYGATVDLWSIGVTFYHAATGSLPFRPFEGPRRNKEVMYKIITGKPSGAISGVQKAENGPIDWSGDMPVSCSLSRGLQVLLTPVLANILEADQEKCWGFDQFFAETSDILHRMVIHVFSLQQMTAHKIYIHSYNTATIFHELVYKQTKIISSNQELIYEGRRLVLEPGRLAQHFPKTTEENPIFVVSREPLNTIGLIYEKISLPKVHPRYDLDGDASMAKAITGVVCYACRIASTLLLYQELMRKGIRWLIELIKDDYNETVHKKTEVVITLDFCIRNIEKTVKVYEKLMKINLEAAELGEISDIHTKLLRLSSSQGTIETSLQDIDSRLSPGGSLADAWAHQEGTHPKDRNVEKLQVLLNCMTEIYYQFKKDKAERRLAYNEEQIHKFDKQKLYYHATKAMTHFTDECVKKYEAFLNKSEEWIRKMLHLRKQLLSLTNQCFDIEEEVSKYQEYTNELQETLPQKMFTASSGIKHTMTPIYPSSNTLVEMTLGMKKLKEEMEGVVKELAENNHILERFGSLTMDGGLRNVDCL
Conditions: at 1 µM.

For assay [2], the target named is T2, Inhibitor of nuclear factor kappa-B kinase subunit alpha (Homo sapiens) (UniProt O15111).
T2 sequence (whole entry): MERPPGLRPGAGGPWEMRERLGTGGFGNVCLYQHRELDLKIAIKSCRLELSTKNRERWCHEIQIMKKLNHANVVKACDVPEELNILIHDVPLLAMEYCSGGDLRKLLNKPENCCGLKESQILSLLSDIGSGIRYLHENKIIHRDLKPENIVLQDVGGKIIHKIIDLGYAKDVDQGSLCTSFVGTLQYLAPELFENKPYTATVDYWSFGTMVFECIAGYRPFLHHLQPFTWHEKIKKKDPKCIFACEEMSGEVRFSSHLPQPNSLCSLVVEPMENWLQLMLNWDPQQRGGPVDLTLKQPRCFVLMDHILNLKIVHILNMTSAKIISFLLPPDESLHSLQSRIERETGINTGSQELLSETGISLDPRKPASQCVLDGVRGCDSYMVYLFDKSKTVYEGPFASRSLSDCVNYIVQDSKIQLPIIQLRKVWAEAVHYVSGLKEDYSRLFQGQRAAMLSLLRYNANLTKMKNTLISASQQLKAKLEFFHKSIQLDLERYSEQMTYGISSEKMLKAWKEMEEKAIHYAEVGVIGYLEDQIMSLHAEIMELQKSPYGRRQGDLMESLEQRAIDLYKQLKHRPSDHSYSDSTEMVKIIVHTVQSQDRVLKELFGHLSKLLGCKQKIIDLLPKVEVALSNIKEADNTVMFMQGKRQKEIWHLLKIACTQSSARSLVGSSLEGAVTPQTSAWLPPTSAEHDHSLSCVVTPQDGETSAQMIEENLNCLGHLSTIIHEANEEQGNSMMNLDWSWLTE
Conditions: at 1 µM.

Assay [3] deals with T3, Inhibitor of nuclear factor kappa-B kinase subunit beta (Homo sapiens) (UniProt O14920).
T3 sequence (whole entry): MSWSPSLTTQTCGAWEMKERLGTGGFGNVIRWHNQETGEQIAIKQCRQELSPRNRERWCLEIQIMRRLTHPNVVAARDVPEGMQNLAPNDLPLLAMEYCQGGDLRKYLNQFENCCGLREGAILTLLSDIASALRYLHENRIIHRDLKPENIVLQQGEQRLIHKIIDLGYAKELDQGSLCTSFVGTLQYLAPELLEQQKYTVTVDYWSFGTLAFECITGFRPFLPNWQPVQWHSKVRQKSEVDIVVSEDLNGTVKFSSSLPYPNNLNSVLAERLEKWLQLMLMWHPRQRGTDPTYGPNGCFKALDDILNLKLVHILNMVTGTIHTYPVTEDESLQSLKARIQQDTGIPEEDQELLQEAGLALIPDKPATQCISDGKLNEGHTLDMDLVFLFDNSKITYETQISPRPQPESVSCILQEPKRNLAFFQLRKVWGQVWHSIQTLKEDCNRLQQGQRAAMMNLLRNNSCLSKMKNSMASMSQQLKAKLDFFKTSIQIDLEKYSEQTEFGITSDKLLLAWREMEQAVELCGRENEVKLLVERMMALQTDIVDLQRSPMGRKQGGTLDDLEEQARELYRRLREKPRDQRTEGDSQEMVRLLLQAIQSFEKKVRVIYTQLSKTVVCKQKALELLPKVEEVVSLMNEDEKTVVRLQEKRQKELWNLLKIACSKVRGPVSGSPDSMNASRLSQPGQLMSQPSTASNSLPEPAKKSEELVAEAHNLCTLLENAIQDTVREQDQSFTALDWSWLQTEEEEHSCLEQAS
Conditions: at 1 µM.

In assay [4] the target is T4, Tyrosine-protein kinase Mer (Homo sapiens) (UniProt Q12866).
T4 sequence (whole entry): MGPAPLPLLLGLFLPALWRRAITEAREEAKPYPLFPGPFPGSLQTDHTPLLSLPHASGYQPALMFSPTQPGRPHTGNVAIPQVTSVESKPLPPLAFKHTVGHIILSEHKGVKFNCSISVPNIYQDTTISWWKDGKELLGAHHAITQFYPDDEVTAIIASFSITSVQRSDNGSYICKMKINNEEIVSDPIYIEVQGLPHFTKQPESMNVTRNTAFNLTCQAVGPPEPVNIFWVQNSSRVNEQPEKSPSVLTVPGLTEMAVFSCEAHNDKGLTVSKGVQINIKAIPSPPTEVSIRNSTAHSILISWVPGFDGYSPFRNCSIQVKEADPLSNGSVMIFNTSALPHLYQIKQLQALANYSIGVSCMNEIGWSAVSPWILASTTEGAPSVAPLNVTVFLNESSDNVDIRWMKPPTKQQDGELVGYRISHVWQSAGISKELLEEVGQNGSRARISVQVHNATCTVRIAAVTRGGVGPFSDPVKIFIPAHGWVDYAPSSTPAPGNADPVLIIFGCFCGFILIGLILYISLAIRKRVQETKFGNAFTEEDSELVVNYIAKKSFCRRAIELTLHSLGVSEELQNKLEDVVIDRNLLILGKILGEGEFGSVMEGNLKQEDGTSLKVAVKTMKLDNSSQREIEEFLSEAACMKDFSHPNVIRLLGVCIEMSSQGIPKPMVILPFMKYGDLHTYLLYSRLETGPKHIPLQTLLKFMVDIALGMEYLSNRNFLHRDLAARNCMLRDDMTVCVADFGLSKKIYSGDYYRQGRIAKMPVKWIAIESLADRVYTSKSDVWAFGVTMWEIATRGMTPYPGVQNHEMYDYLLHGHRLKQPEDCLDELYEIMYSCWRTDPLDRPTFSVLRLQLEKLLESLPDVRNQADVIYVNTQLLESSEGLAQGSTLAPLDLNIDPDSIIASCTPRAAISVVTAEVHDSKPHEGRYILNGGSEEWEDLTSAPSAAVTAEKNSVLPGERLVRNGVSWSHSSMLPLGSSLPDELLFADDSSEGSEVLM
Conditions: at 10 µM.

Assay [5] has as its target T5, Inhibitor of nuclear factor kappa-B kinase subunit epsilon (Homo sapiens) (UniProt Q14164).
T5 sequence (whole entry): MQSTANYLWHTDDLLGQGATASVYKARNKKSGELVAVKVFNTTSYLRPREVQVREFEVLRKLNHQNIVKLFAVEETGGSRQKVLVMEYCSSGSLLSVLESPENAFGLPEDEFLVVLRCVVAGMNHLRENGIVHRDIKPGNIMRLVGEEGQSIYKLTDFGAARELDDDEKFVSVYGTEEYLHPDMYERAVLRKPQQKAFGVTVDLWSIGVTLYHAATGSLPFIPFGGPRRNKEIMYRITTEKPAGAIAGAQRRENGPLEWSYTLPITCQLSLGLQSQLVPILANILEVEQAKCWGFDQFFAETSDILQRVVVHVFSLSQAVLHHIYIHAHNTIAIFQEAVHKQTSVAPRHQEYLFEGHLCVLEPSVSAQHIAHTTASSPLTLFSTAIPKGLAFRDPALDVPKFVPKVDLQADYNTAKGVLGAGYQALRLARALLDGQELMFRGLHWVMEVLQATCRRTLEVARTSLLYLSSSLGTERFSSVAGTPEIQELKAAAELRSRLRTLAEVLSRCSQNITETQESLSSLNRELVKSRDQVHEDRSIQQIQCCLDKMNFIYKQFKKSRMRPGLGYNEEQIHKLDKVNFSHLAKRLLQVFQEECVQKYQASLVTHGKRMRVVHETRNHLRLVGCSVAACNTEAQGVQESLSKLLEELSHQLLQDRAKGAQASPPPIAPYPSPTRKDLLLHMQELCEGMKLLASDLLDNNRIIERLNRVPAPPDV
Conditions: at 1 µM.

For the molecule `COc1ccccc1Oc1nccc(-c2c(-c3ccc(F)cc3)ncn2C2CCNCC2)n1`, the inhibition in assay [1] was 3% and 5%; in assay [2] it was -2%; in assay [3] it was 1% and -1%; in assay [4], 4%; in assay [5], 3%.

`Fc1ccc(-c2ncn(C3CCNCC3)c2-c2ccnc(Oc3cccc(F)c3)n2)cc1`: the inhibition in assay [1] is -2%; in assay [2], 0%; in assay [3], -3% and -1%; in assay [4], -2%; in assay [5] it was -1%.

In the case of `O=C1NC(=O)C(c2cccc([N+](=O)[O-])c2)=C1Nc1cc(Cl)c(O)c(Cl)c1`, the inhibition in assay [1] is 91% and 90%; in assay [2], -10% and 5%; in assay [3] it was -4% and -3%; in assay [4] it was -7%; in assay [5], 54% and 53%.

Regarding `O=C1NC(=O)C(c2ccccc2Cl)=C1Nc1cc(Cl)c(O)c(Cl)c1`, the inhibition in assay [1] is 21% and 19%; in assay [2], 2% and 3%; in assay [3] it was -7% and -1%; in assay [4] it was 13%; in assay [5] it was 17% and 15%.

On to `O=C(O)c1ccc(Oc2nccc(-c3c(-c4ccc(F)cc4)ncn3C3CCNCC3)n2)cc1`, for which the inhibition in assay [1] is -5% and -6%; in assay [2], -1%; in assay [3], -3% and -2%; in assay [4], 2%; in assay [5], -3%.

Take `Fc1ccc(Oc2nccc(-c3c(-c4ccc(F)cc4)ncn3C3CCNCC3)n2)cc1`: the inhibition was 2% and 4% in assay [1]; 9% and 1% in assay [2]; 0% and 1% in assay [3]; 79% in assay [4]; 13% and 0% in assay [5].

Regarding `Cc1cccc(Oc2nccc(-c3c(-c4ccc(F)cc4)ncn3C3CCNCC3)n2)c1C`, the inhibition is 2% and 4% in assay [1]; -5% and -6% in assay [2]; 1% in assay [3]; -7% in assay [4]; 2% and 1% in assay [5].

`CC(C)(C)c1ccc(Oc2nccc(-c3c(-c4ccc(F)cc4)ncn3C3CCNCC3)n2)cc1`: the inhibition in assay [1] was 1% and 0%; in assay [2] it was 0% and -3%; in assay [3], -2% and 3%; in assay [4], -7%; in assay [5] it was 1%.

For the molecule `NC(=O)CCc1ccccc1Oc1nccc(-c2c(-c3ccc(F)cc3)ncn2C2CCNCC2)n1`, the inhibition in assay [1] is 4%; in assay [2] it was 1%; in assay [3], 0% and 1%; in assay [4] it was 95%; in assay [5] it was 3% and 4%.

As to `COc1ccccc1C1=C(Nc2ccccc2)C(=O)NC1=O`, the inhibition in assay [1] is 5%; in assay [2], 3% and 4%; in assay [3] it was -2%; in assay [4] it was 17%; in assay [5] it was 8% and 6%.

For the molecule `Fc1ccc(-c2ncn(C3CCNCC3)c2-c2ccnc(Oc3ccc(Cl)cc3)n2)cc1`, the inhibition in assay [1] was 3% and 4%; in assay [2], -3% and -4%; in assay [3], 0% and 5%; in assay [4], -8%; in assay [5] it was 1% and 3%.

For the molecule `Fc1ccc(-c2ncn(C3CCNCC3)c2-c2ccnc(Oc3cccc(C(F)(F)F)c3)n2)cc1`, the inhibition in assay [1] is 2% and 0%; in assay [2], 4% and 3%; in assay [3], -1%; in assay [4] it was 86%; in assay [5], 0%.

With `CS(=O)(=O)c1ccc(Oc2nccc(-c3c(-c4ccc(F)cc4)ncn3C3CCNCC3)n2)cc1`, the inhibition in assay [1] is 3% and 5%; in assay [2], -2% and -1%; in assay [3] it was -1% and 0%; in assay [4] it was -3%; in assay [5], 1%.

With `O=C1NC(=O)C(c2ccccc2)=C1Nc1ccccc1`, the inhibition was 3% in assay [1]; 1% in assay [2]; -3% and -5% in assay [3]; 26% in assay [4]; 2% and -1% in assay [5].

The record behind these values is ChEMBL document CHEMBL2007661, “Compounds: GSK PKIS; Assays: UNC Frye lab” (2012).
